Experimental data from PubChem BioAssay AID1745853 (National Center for Advancing Translational Sciences (NCATS), 2022).
Some of the results follow. Further columns of the screen follow, without active or inactive calls.

Key:
Assay in all cases: Primary Screen for Target Class Profiling of Small Molecule Inhibitors of Methyltransferases
[1] = target: Glycine N-methyltransferase (Homo sapiens) (UniProt Q14749); conditions: purified enzyme, MTase-Glo SAH luminescence; measured here: GNMT inhibition; at 40 µM; stronger effect = lower value
Outline: (§1)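 Each enzyme was reacted with SAM and its substrate, with compounds tested once at 40 uM; SAH formed was read by MTase-Glo luminescence.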

[2] = target: Guanidinoacetate N-methyltransferase (Homo sapiens) (UniProt Q14353); conditions: purified enzyme, MTase-Glo SAH luminescence; measured here: GAMT inhibition; at 40 µM; stronger effect = lower value
Outline: as §1

[3] = target: Histamine N-methyltransferase (Homo sapiens) (UniProt P50135); conditions: purified enzyme, MTase-Glo SAH luminescence; measured here: HNMT inhibition; at 40 µM; stronger effect = lower value
Outline: as §1

[4] = target: Nicotinamide N-methyltransferase (Homo sapiens) (UniProt P40261); conditions: purified enzyme, MTase-Glo SAH luminescence; measured here: NNMT inhibition; at 40 µM; stronger effect = lower value
Outline: as §1

[5] = target: Phenylethanolamine N-methyltransferase (Homo sapiens) (UniProt P11086); conditions: purified enzyme, MTase-Glo SAH luminescence; measured here: PNMT inhibition; at 40 µM; stronger effect = lower value
Outline: as §1
% is set by controls: 0 for no effect and ±100 for the full control effect.

Compound | activity change, negative = inhibition [1] [%] | activity change, negative = inhibition [2] [%] | activity change, negative = inhibition [3] [%] | activity change, negative = inhibition [4] [%] | activity change, negative = inhibition [5] [%]
C[C@@]1(O)[C@H](O)[C@@H](CO)O[C@H]1n1ccc(N)nc1=O | -5.79 | -6.35 | 15.9 | -13.9 | 1.57
Cc1ccc(-c2nc(-c3cc4cccc(OCc5cccc(C)c5)c4oc3=O)no2)cc1 |  | -16.5 |  | -23.4 | -15.1
CC(C)n1c(=O)c2ccc(C(=O)NC3CCCCC3)cc2n2c(=O)n(Cc3c(F)cccc3Cl)nc12 | 6.45 | 0 | 11.5 | 4.31 | 5.8
COC(=O)C12C(=O)C(C)=C(O)C1(C)C(C)=CC1C3(CO)CCC(O)C(C)(C)C3CCC12C (stereo not drawn) | -3.36 | 0.476 | 10.1 | -13.7 | -6.87
O=C1CCC2(CCCN(c3ncccc3F)C2)CN1Cc1ccncc1 (stereo not drawn) | -4.85 | -6.51 | -2.54 | -1.64 | -9.12
COc1ccc(C(=O)N2CCC(Cn3c(C)cnc3C3CCC3)CC2)c(OC)c1 | -4.25 | -5.82 | -20.3 | -9.41 | -2.73
CC1Oc2ccc(NC(=O)CC(C)(C)C)cc2CN(CCc2ccccc2)C1=O (stereo not drawn) | -5.68 | -0.268 | -29.1 | 0.852 | 0.678
COC(=O)c1cc2n(n1)CC(C)(C(=O)NC1CCCCCC1)N(Cc1ccccc1)C2=O (stereo not drawn) | 4.08 | 0 | 7.98 | -0.458 | -0.143
CC1OC(OC2C(O)C(C(=O)O)OC(OC3CCC4(C)C(CCC5(C)C4C=CC4=C6CC(C)(C)CC(O)C6(C)CCC45C)C3(C)C)C2OC2OCC(O)C(O)C2O)C(O)C(O)C1O (stereo not drawn) | 3.16 | 9.91 | 9.47 | -18 | 8.14
C[C@H](O)C(O)(C(=O)OCc1ccccc1NC(=O)CCC(N)C(=O)O)[C@H](C)O (stereo partly drawn) | 0 | 9.86 | 6.47 | -2.21 | 7.12
O=C(NCCN1CCCC1)c1cc(-c2ccc(CN3CCOCC3)cc2)nc2ccc(F)cc12 | -1.01 | -0.218 | -20.7 | -4.89 | 3.74
Nc1nc(Nc2ccc(S(N)(=O)=O)cc2)nn1C(=O)c1c(F)cccc1F | -22.7 | -8.01 | -4.66 | -24.3 | -0.208
Cc1nc([C@H]2CCN(Cc3cccc(OC(F)(F)F)c3)C[C@H]2NC(=O)C2CC2)n[nH]1 | -2.75 | 0.104 | 1.79 | 3.31 | 2.53
CO[C@@H](C)Cn1c(=O)n(C)c2cnc3ccc(-c4cncc(C(C)(C)O)c4)cc3c21 | -29.7 | -13.7 | -26.8 | -28.9 | -13.3
Cc1ccc(C)c(OCCn2cc(C(=O)O)c3ccccc32)c1 | -8.7 | -5.49 | 4.53 | -20.9 | -1.2
CC1CCCCN1S(=O)(=O)c1ccc(N2CCCC2=O)cc1 (stereo not drawn) | 1.07 | -1.54 | 0.432 | -16.7 | -4.48
COc1ccccc1CNC(=O)C1(C)Cn2cnc(C(=O)NC3CCCCC3)c2C(=O)N1C1CC1 (stereo not drawn) | 4.81 | 0.047 | 15.2 | 1.2 | 9.83
NC(=O)CCCSc1nc(N)nc(-c2c(Cl)cc3c4c(cccc24)COC3)n1 | 0.639 | 3.28 | 5.27 | -12.8 | -0.334
CC1(C(=O)NC2CCCCCC2)Cn2c(cc3sccc32)C(=O)N1Cc1ccccc1Cl (stereo not drawn) | 1.31 | 0 | 2.31 | 4.29 | -3.47
COc1ccccc1-c1ccc(C(=O)N2CCC(N[S+](=O)([O-])c3ccccc3)CC2)cc1 | -5.08 | -8.37 | -3.95 | -20.5 | -15.3
Cc1noc(C)c1-c1cc2cc(CN(C)C)oc2c(N2CCOCC2)n1 | -7.02 | -3.56 | -8.24 | -6.95 | -4.3
COc1ccc(OC)c2c1cc1n2CC(C)(C(=O)NC2CCCC2)N(Cc2ccccc2F)C1=O (stereo not drawn) | 3.21 | 0 | 3.53 | 0.074 | -2.37
CC(=O)O[C@@H]1[C@@H](OC(=O)/C=C/c2ccccc2)[C@@H](OC(C)=O)[C@H](O[C@H]2[C@@H]3C=CO[C@@H](O[C@@H]4O[C@H](CO)[C@@H](O)[C@H](O)[C@H]4O)[C@@H]3[C@@]3(CO)O[C@@H]23)O[C@H]1C | 0 | 4.89 | 8 | -6.37 | 7.18
CCOC(=O)c1cc2n(n1)CC(C)(C(=O)NC1CCCCCC1)N(c1cc(C)cc(C)c1)C2=O (stereo not drawn) | 4.89 | 0.641 | -2.57 | 4.97 | 2.8
CCCn1c(=O)c2ccc(C(=O)NC3CCCC3)cc2n2c(SCC(=O)Nc3cccc(C)c3)nnc12 | 8.01 | 0.064 | 11.6 | 1.32 | 8.63
c1ccc(-c2cnn3cc(-c4ccc(OCCN5CCOCC5)cc4)cnc23)cc1 | -2.89 | 6.9 | 1.89 | -8.24 | 3.42
CCCn1c(=O)c2ccc(C(=O)NC(C)C)cc2n2c(=O)n(CC(=O)c3cccc(Cl)c3)nc12 | 4.95 | 3.22 | 11.3 | -5.44 | 7.04
O=C(O)CCC/C=C\C[C@@H]1[C@@H](/C=C/[C@H](O)C2Cc3ccccc3C2)[C@@H](F)C[C@@H]1O | -8.89 | 6.33 | -0.066 | -4.29 | 7.73
COc1ccc(CNCc2cccc3ccccc23)cc1 | 1.15 | 2.43 | -0.298 | -9.6 | 2.01
